The campaign covered roughly 360,000 compounds. About 16,000 (4.4%) were called active. Inconclusive results, whose numbers are uncertain, are shown with a selection of clear calls. Calls come from the whole dose curve; as a rule, active = well fitted inhibition curve with a large enough effect; inconclusive = small, poorly fitted or top-dose-only effect; inactive = no such curve, though single readings can be large or run the other way. Potencies of inconclusive entries are doubtful fits and often do not repeat.
The molecules below were run against Bromodomain adjacent to zinc finger domain protein 2B (Homo sapiens) (UniProt Q9UIF8) (assay: qHTS Assay for Inhibitors of BAZ2B). Conditions: AlphaScreen BAZ2B-H3K14Ac peptide displacement; activity change, negative = inhibition: at 114 µM (top of the series) unless noted.
How it was run: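 Protein-peptide AlphaScreen: BAZ2B 50 nM, b-H3K14Ac 50 nM, 1x PBS pH 7.4 + 0.01% Tween-20. Preincubation 30 min RT; cpd 30 min RT (top 110 uM); beads 20 min RT, light-protected.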
% is set by controls: 0 for no effect and ±100 for the full control effect; potency is the fitted concentration of half-maximal effect; tags give direction and shape of the fitted curve.
Note: nearly all actives have a fitted effect of over 60% in size.

Sequence of UniProt Q9UIF8 (Q9UIF8 whole entry, looked up, the tested form may be a part): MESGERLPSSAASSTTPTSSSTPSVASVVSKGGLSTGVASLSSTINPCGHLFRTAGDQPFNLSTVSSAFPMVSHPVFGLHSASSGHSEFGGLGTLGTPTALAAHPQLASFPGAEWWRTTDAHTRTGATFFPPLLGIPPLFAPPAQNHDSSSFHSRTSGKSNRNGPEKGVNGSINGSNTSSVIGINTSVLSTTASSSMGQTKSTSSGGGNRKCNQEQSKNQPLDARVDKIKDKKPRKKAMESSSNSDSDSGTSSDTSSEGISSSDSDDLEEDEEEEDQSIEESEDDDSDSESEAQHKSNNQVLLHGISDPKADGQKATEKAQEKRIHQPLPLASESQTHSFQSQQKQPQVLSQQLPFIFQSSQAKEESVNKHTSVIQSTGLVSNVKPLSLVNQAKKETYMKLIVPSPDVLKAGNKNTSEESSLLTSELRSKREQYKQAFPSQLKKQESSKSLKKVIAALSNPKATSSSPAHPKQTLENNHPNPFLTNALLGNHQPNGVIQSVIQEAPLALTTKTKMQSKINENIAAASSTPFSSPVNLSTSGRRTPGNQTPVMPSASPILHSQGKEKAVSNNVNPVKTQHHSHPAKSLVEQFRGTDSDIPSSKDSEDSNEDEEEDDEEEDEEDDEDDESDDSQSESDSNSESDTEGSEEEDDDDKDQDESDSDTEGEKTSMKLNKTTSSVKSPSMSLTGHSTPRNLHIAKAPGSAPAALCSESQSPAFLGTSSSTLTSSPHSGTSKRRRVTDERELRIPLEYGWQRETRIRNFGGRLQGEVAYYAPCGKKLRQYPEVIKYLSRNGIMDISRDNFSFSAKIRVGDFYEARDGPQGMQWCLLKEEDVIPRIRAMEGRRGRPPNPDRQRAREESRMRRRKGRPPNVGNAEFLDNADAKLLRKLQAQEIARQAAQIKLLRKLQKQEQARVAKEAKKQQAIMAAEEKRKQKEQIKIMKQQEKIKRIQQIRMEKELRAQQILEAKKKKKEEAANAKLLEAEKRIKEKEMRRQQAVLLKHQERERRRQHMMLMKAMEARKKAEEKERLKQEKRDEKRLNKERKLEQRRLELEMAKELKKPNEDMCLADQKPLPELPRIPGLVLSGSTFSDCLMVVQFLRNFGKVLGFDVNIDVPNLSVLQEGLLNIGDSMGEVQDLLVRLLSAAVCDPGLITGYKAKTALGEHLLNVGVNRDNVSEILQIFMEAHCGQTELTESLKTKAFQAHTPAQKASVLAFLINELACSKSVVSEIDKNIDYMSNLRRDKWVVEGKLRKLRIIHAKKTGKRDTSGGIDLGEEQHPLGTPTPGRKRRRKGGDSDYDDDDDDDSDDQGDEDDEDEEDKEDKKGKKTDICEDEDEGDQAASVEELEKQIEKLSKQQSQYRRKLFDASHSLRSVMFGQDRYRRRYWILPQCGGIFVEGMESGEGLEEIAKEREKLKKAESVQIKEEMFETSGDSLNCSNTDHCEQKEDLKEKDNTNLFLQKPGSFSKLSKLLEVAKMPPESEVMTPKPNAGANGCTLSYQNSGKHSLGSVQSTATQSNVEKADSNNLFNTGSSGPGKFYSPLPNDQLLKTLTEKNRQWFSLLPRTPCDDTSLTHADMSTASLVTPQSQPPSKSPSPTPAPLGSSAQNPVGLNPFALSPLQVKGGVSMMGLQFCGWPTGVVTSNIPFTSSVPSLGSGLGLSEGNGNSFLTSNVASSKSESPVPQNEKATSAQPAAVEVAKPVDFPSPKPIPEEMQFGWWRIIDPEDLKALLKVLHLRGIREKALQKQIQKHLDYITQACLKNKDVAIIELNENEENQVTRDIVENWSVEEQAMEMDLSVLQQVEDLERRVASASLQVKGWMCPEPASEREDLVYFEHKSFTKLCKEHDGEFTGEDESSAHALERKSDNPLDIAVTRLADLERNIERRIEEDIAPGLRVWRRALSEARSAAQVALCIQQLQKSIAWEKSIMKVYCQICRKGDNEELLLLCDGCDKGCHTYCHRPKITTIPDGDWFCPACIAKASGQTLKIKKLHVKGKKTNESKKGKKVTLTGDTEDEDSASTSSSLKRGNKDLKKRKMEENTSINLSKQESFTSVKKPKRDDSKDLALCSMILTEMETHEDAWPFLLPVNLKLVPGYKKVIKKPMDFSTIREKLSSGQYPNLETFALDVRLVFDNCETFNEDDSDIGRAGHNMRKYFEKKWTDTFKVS

| SMILES | Potency | activity change, negative = inhibition |
| --- | --- | --- |
| CN(c1ccccc1)S(=O)(=O)c1ccc(C(=O)Nc2nnc(C3CC3)o2)cc1 | inconclusive: 89.1 µM [inhibitor, single point] |  |
| CCN(Cc1ccccc1)Cc1ccc(OCc2ccccc2)cc1 | inconclusive: 39.8 µM [inhibitor, single point] |  |
| CCn1ccnc1CN(C)Cc1nc(-c2ccc3c(c2)OCO3)no1 | inconclusive: 89.1 µM [inhibitor, single point] |  |
| COc1ccc(C(=O)Nc2ccc3nc4c(c(Nc5ccc(OC)c(OC)c5)c3c2)CCCC4)c(OC)c1 | inconclusive: 50.1 µM [inhibitor, partial curve] |  |
| CCOC(=O)c1c(C)oc2ccc(NS(=O)(=O)c3cccs3)cc12 | inconclusive: 70.8 µM [inhibitor, single point] |  |
| Cc1sc(NC(=O)c2ccco2)c(C(c2cccnc2)N2CCN(c3ccc(F)cc3)CC2)c1C (stereo not drawn) | inconclusive: 39.8 µM [inhibitor, full curve, poor fit] |  |
| CCN1CCN(c2ccc(S(=O)(=O)N3CCCCC3)cc2NC(=O)COc2cc(C)ccc2Cl)CC1 | active: 79.4 µM |  |
| Cc1ccc(-n2cc(CNCCCn3ccnc3C)c(-c3ccc(F)cc3)n2)cc1 | inconclusive: 28.2 µM [inhibitor, full curve] |  |
| Cc1ccc(C)c(NC(=S)NCCSc2ccc(Cl)cc2)c1 | inconclusive: 89.1 µM [inhibitor, single point] |  |
| CCN(CC)c1ccc(CN(C(=O)c2ccco2)C2CCS(=O)(=O)C2)cc1 (stereo not drawn) |  | inactive: -36% |
| CN(C)c1ccc(CN(CC2CCCO2)C(=O)c2cc3ccccc3o2)cc1 (stereo not drawn) | active: 10 µM |  |
| S=c1[nH]nc(Cc2ccc(Cl)cc2)n1-c1ccc2c(c1)OCCO2 | inconclusive: 89.1 µM [inhibitor, single point] |  |
| COc1cccc(C2=CC(c3ccccc3F)n3ncc(C(=O)Nc4ccc(C)cc4)c3N2)c1 (stereo not drawn) | inconclusive: 22.4 µM [inhibitor, full curve] |  |
| Cc1cc(C(=O)OCC(=O)N2CC(C)OC(C)C2)c(C)n1-c1ccccc1 (stereo not drawn) | inconclusive: 79.4 µM [inhibitor, single point] |  |
| CCCC(=O)N1N=C(c2ccccc2)CC1c1cn(C)c2ccccc12 (stereo not drawn) | inconclusive: 39.8 µM [inhibitor, partial curve] |  |
| CSc1nn(CCc2ccncc2)c(=S)s1 | inconclusive: 100 µM [inhibitor, single point] |  |
| O=C(NCc1ccc2c(c1)OCO2)C(C(=O)c1ccccc1)n1cc(Cl)ccc1=O (stereo not drawn) |  | inactive: -5.25% |
| CCOc1ccc(S(=O)(=O)N2CCOCC2)cc1NC(=O)CN1C(=O)NC(C)(c2ccccc2)C1=O (stereo not drawn) |  | inactive: 7.84% |
| Cc1cc(/C=N/NC(=O)c2ccc(O)cc2)c(C)n1CC(C)C | inconclusive: 70.8 µM [inhibitor, single point] |  |
| COc1ccc(NS(=O)(=O)c2cc(C(=O)O)ccc2C)cc1 | inconclusive: 100 µM [inhibitor, single point] |  |
| CCOc1cccc2sc(N3CCN(C(=O)c4ccc5c(c4)CCCC5)CC3)nc12 |  | inactive: -22.7% |
| COc1ccc(CNC(=O)CSc2nc(SC)ns2)cc1 |  | inactive: -7.06% |

| SMILES | Potency | activity change, negative = inhibition |
| --- | --- | --- |
| CN(CCC1CCOCC1)C(=O)CC1C(=O)NCCN1Cc1ccccc1F (stereo not drawn) |  | inactive: -16.3% |
| O=C1Nc2ccccc2SC(c2ccccc2)C1O (stereo not drawn) | active: 39.8 µM |  |
| CC1(C)CC(N2CCCC2)=CC(=[N+]2CCCCCC2)C1 | inconclusive: 89.1 µM [inhibitor, single point] |  |
| Cc1ccc(S(=O)(=O)N2CC=C(c3c(C)n(C)c4ccccc34)CC2)cc1 | inconclusive: 79.4 µM [inhibitor, partial curve] |  |
| Cc1c(Cl)cnn1CC(=O)NC1C(=O)N2C(C(=O)O)=C(CSc3nnnn3C)CSC12 (stereo not drawn) | active: 56.2 µM |  |
| O=C(O)c1ccc(-c2nc(-c3ccc(Cl)cc3)cs2)cc1 | inconclusive: 70.8 µM [inhibitor, single point] |  |
| Cc1ccc(C(=O)n2nc(C)c(S(=O)(=O)N3CCCCCC3)c2C)cc1C |  | inactive: 60.2% |
| CC1(C)C(=O)Nc2ccccc2N1C(=O)COC(=O)COc1ccc(C#N)cc1 | inconclusive: 70.8 µM [inhibitor, single point] |  |
| Cc1nnc(SCC2=C(C(=O)O)N3C(=O)C(NC(=O)Cn4ncc(Cl)c4C)C3SC2)s1 (stereo not drawn) | inconclusive: 79.4 µM [inhibitor, single point] |  |
| CN(CCCC(=O)NCc1ccc2c(c1)OCO2)S(=O)(=O)c1ccc([N+](=O)[O-])cc1 | inconclusive: 79.4 µM [inhibitor, single point] |  |
| Cc1cc(N2CCN(C)CC2)nc2ccc(NC(=O)c3ccc(C(C)(C)C)cc3)cc12 | inconclusive: 28.2 µM [inhibitor, full curve] |  |
| C=CCN(CC=C)CCOc1cc(C)ccc1[N+](=O)[O-] | active: 22.4 µM |  |
| CC1CC(=O)c2cnc(N3CCOCC3)nc2C1 (stereo not drawn) | inconclusive: 11.2 µM [inhibitor, single point] |  |
| O=C(c1ccc(-c2nc3ccccc3s2)o1)N1CCN(c2ccccc2O)CC1 | inconclusive: 50.1 µM [inhibitor, partial curve, poor fit] |  |
| O=C(CSc1nc(=O)[nH]c2c1CCCC2)Nc1ccc(Cl)c(Cl)c1 |  | inactive: -1.77% |
| C=CC(COCc1ccccc1)N(Cc1ccc(OC)cc1)S(=O)(=O)c1ccccc1Br (stereo not drawn) | inconclusive: 2.24 µM [inhibitor, full curve, poor fit] |  |
| N#Cc1c(Cl)nc(-c2ccncc2)nc1-c1ccccc1 | active: 79.4 µM |  |
| O=[N+]([O-])c1cccc(-c2ccc(C(=S)N3CCN(c4ccccc4)CC3)o2)c1 | inconclusive: 2.82 µM [inhibitor, full curve, poor fit] |  |
| COc1cc(OC)c(S(=O)(=O)Nc2ccccc2N2CCCCC2)cc1NC(C)=O | inconclusive: 89.1 µM [inhibitor, single point] |  |
| CCN1C(=O)/C(=C\c2ccco2)C(C(=O)OC)=C1C | inconclusive: 44.7 µM [inhibitor, partial curve] |  |
| Cc1ccc(S(=O)(=O)N2CCOCC2)cc1C(=O)OCc1nnc(-c2ccccc2)o1 |  | inactive: 13.3% |

Source: PubChem BioAssay AID504333 (National Center for Advancing Translational Sciences (NCATS), 2011)
